Data taken from PubChem BioAssay AID686978 (National Center for Advancing Translational Sciences (NCATS), 2013).
Out of some 420,000 compounds screened, about 64,000 (15%) were called active. The inconclusive results got no clear call from the source; some entries with a clear call stand among them for comparison. Calls come from the whole dose curve; as a rule, active = well fitted inhibition curve with a large enough effect; inconclusive = small, poorly fitted or top-dose-only effect; inactive = flat fitted curve, though single readings scatter. No potency is given beside an inconclusive call; the fits are too rough.

Test: qHTS for Inhibitors of human tyrosyl-DNA phosphodiesterase 1 (TDP1): qHTS in cells in absence of CPT; note: nearly all actives have a fitted effect of over 55% in size
Conditions: DT40 Tdp1-/- hTDP1 cells, no CPT, ATP luminescence, 48 h; activity change, negative = growth inhibition: at 46.2 µM (top of the series) unless noted
In short: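 No-CPT arm: Tdp1-/-;hTDP1 DT40 cells (400/well) plus compounds, incubated ≥48 hr at 37 °C. Readout CellTiter-Glo luminescence.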
% is set by controls: 0 for no effect and ±100 for the full control effect; potency is the fitted concentration of half-maximal effect; tags give direction and shape of the fitted curve.

SMILES | Potency | activity change, negative = growth inhibition
COc1cccc(/C=N/NC(=O)c2cccc3ccccc23)c1 | inconclusive [inhibitor, full curve, poor fit] | 
CC(CCc1ccccc1)NC(=O)CC(C)c1ccccc1 (stereo not given) | inconclusive [inhibitor, single point] | 
CC(OCC(O)CN(C)CCOc1ccccc1)c1ccc(Cl)cc1 (stereo not given) |  | inconclusive: -33.6% [inhibitor]
COc1ccc(Cl)cc1NC(=O)CNc1ccccc1CN(C)C1CCCCC1 | inconclusive [inhibitor, single point] | 
CC(C)(C)n1ncc2c(=O)n(CC(=O)N3CCCCCC3)cnc21 |  | inconclusive: -31.4% [inhibitor]
CCOC(=O)/C(C#N)=C/C1=C(N2CCCC2)CC(C)(C)OC1 | inconclusive [inhibitor, partial curve] | 
NS(=O)(=O)c1cnccc1Nc1cccc(F)c1 | inactive | 
Cc1ccc2c(c1)C(c1ccccc1)N(C(=O)c1ccccc1F)CC(=O)N2 (stereo not given) | inconclusive [inhibitor, single point] | 
COc1cc(NC(=O)Nc2nnc([C@@H]3C[C@H](O)[C@@H](CO)O3)s2)cc(OC)c1OC | inactive | 
Cc1ccc(CSc2nnc(NC(=O)C3=COCCO3)s2)cc1 | inactive | 
CCOC(=O)c1c(NC(=O)CN2CCOCC2)sc2c1CC(C)(C)OC2 | inconclusive [inhibitor, partial curve] | 
CSc1ccccc1CNC(=O)C1(C)CCCN1CC(C)C (stereo not given) | active: 23.1 µM | 
COC(=O)C(CC(C)C)N(Cc1cc(OC)cc(OC)c1)S(=O)(=O)c1ccccc1Br (stereo not given) | inconclusive [inhibitor, single point] | 
CCOC(=O)c1c(C)[nH]c(C)c1S(=O)(=O)N1CCCC(C(=O)Nc2ccccc2OCC)C1 (stereo not given) | inconclusive [inhibitor, single point] | 
CCc1cccc(CC)c1NC(=O)C(CC)n1nc(C)n2c(cc3cc(C)ccc32)c1=O (stereo not given) | active: 20.6 µM | 
COc1cc2nc(CN3CCC(C(O)(c4ccccc4)c4ccccc4)CC3)[nH]c(=O)c2cc1OC | active: 18.4 µM | 
COCCCNC(=O)C1CCN(c2ncccn2)CC1 |  | inconclusive: -5.85% [inhibitor]
CCCCCC(=O)NC(=S)Nc1ccc(N2CCOCC2)cc1 | inconclusive [inhibitor, single point] | 
CCCCn1c(=O)[nH]c(=O)c2c1nc(-c1ccc(C)c([N+](=O)[O-])c1)n2CC | active: 20.6 µM | 
COc1ccccc1NS(=O)(=O)c1cccc(NC(=O)c2nn(C)c(=O)c3ccccc23)c1 | active: 23.1 µM | 
